Assay results: the supplement of paper PMC3334620
The full ranking holds about 33,000 sequences; the median of “E-score (-0.5 to 0.5)” is about -0.032, and the highest 2% start at about 0.36. This is one part of the list.

target: T1, Sko1 (UniProt Q02100); experiment: PBM E-score (8-mer binding enrichment) (E-score (-0.5 to 0.5)); higher = stronger / more preferred TF binding; most listed sequences are background and not binding sites; details: protein concentration: 200 nM; construct: GST-full length
T1 sequence: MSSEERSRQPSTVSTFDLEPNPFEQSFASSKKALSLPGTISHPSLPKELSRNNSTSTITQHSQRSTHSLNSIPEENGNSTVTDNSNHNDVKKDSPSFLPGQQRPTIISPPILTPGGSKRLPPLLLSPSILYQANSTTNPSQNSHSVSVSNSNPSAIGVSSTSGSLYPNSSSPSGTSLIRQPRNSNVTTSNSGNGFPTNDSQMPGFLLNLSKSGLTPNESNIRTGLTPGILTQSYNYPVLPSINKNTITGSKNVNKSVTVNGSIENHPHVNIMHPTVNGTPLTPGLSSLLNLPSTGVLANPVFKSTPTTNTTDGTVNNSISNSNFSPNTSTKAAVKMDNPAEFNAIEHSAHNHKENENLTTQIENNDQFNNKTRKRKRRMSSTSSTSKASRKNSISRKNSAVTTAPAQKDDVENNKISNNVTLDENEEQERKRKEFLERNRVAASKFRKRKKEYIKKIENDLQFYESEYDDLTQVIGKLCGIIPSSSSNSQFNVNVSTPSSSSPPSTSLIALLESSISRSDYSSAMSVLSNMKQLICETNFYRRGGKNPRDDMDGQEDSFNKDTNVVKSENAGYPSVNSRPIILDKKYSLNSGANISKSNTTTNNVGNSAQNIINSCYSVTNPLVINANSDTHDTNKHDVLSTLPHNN
Method in brief: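 E-scores (a modified Wilcoxon-Mann-Whitney statistic) were assigned by the Universal PBM Analysis Suite to every ungapped eight-base word pooled with its reverse complement. The input came from universal all-10-mer Agilent arrays made double-stranded by primer extension and probed with GST-tagged yeast transcription factors at about 100-200 nM. Fluorescent anti-GST detected bound protein, and masliner normalised the scans.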

Sequence	PBM E-score
ATGTACAA	0.0603
ACGGTACC	-0.0695
ACAATATA	0.178
CTATGCAA	0.0735
CTCCAGTA	-0.049
CGCTCCTC	-0.391
TAACCAGA	-0.0453
ACTGCCAT	0.0307
ACCCTACG	0.242
AGTCATAC	0.262
ACCGGGAT	-0.257
CGTTCCGA	0.0271
GCACATCC	-0.0686
ATCCTCTC	-0.187
GGGAGGCA	-0.185
GTCGCAAA	0.0848
CGTACCCC	0.127
ACAAAGAT	0.118
AGGCTGTA	-0.0186
ACATTATC	0.205
AATTCCTA	0.138
CTAGGCAG	-0.298
ACACCGGT	-0.287
ACATGGAA	-0.00341
GAGTCACA	-0.0432

Sequence	PBM E-score
CCACAACA	-0.138
CGACCAGC	-0.0458
AGTCTTAA	-0.164
CCATAACA	0.116
ATTGGGTC	-0.0606
ACCGCTCG	-0.216
CTAGCTAA	0.141
GTTGAGTA	0.102
CCCAGAAC	-0.0415
AGCGCGAC	-0.0623
ATTTCTAA	0.0591
AATCCTAC	-0.0223
ATTCGGCA	-0.142
CATCAAGC	-0.0149
AGTCCAGC	-0.249
AACCTTTG	-0.0506
GGCCGCCC	-0.308
AAGCGTCA	0.353
GGTTAACC	-0.177
CGATTCCA	-0.127
AACATTCC	0.0401
CGAGGTTC	-0.0792
AGGTTACC	0.156
ATGAAACC	-0.0465
AGTCCCAA	-0.196

Sequence	PBM E-score
CGGAGTTC	0.0475
AATTGTGA	0.233
TGTGAGAA	-0.0232
ACGGGATC	0.112
TCCACCCA	-0.166
GAGAGTCA	-0.0313
GCACTGAA	-0.0738
ATGTAGTA	0.254
ATCAGCTC	0.0812
TAAGTCTA	-0.122
CTAACCCA	0.058
CGGCCCCC	-0.424
TGTTGAAA	0.0764
CTTTAGGA	-0.113
AAGCTGTG	0.00242
ATGAGCTA	0.169
GGGATTTA	-0.0501
ACCATCAT	0.09
GTTAAATA	0.167
GAACGGCA	-0.116
CAGCACGA	-0.16
CACGTAAC	0.449
AGTATGTG	0.0562
GCCGCTAC	-0.0843
TCTTTGAA	0.0783

Sequence	PBM E-score
CACTATCA	0.0733
GAACAAAA	0.122
CAGTTCAA	0.0285
AACCAAAA	-0.00733
ATTTCTAG	0.139
ACCCAGGA	-0.154
CCCACATA	-0.0459
CCAGCACA	-0.11
CGCTCCGC	-0.289
TAGGCTAA	-0.0649
GTAGTGAA	0.2
CACGCGAA	0.202
AATCTGCA	-0.034
CACAAGTG	-0.0741
ATGATCGG	-0.117
ACGGTTAA	0.0279
GTGTATGA	0.224
ATCCTTTA	-0.00164
ATTTATGA	0.114
AGAGGTAT	0.0913
CGTTTGAC	0.0281
AAATTATC	0.295
GACGTAAC	0.467
GTGTAGGA	0.057
AGATTGAC	0.17

Sequence	PBM E-score
GAAGGATA	0.0157
AGCAGAAG	-0.127
ACAGGCGC	-0.225
TCGTATCA	0.241
GAGCGCAA	-0.257
GCGGGTTA	-0.116
CCGCGAGA	-0.214
CGAGTCAC	-0.108
ATCTAGAT	-0.115
AGGTTTGG	-0.0203
ACAAGTCC	-0.262
CAGTGCCA	-0.302
CTCTTAGC	-0.0935
ATCAGTCA	0.119
ATGAACTC	-0.00107
GAATAACA	0.181
GACCACTA	0.0499
AGGAGAAA	-0.2
CTCTATGA	0.123
AAATTGCG	0.261
AATAGACA	-0.0972
GTGTACAA	0.237
GGCTTTAC	0.0175
ACCGGAGT	-0.224
ACGCTCCC	-0.115

Sequence	PBM E-score
AAGCCATA	0.0359
TCTTTTCA	0.058
GAACGGTC	-0.323
AATATATC	0.213
ATTACCAC	0.148
AGGAAAAT	0.0723
AACTGACA	0.183
GAAGCTTA	-0.0146
CTATGTAC	0.0843
CGGCACCA	-0.14
GAGACGGC	-0.116
GATTAAGA	0.138
GGATCAGA	-0.228
AATACCAA	0.112
AACTAATC	0.121
AACAAGAG	-0.0807
CATGCCAC	-0.0723
AAAATTAA	0.103
CTTTCACA	0.101
GCGGCCTA	-0.36
CTACTCAG	-0.28
TACGTGAA	0.425
CTAAGGGA	-0.0567
AGCGGTCC	-0.19
AATGCCTG	-0.199

Sequence	PBM E-score
ATAAGTTC	-0.0277
CCCGACGG	-0.0365
TATCGCCA	0.0834
CATCACAA	0.193
ACAAGTCT	-0.158
TATCGACA	-0.0887
AGACATAT	0.266
CACTCGTC	0.204
GAACTACA	-0.00635
GTGATCCA	-0.14
AAAGCCGG	-0.0574
CGACATCA	0.355
AGCGGCGC	-0.308
AGATAGTA	0.0975
GGGAGCCA	-0.292
GCCCTTAA	-0.0166
GAAGGGTC	-0.123
CGGGCAAC	-0.234
GTACCACA	0.188
CATAATAG	0.116
CGACCCGC	-0.141
CCATATCA	0.135
